Source: article PMC5836133
The other results are listed elsewhere or left out. At the low end of the ranking the order means little.

These sequences were tested on T1, GST-NbGlk1(82-244) (assay: protein-binding microarray). Conditions: NbGlk1 is a Golden2-like transcription factor of Nicotiana benthamiana; high values mean tight binding; most listed sequences are background and not binding sites; double strand, one strand shown.
T1 sequence: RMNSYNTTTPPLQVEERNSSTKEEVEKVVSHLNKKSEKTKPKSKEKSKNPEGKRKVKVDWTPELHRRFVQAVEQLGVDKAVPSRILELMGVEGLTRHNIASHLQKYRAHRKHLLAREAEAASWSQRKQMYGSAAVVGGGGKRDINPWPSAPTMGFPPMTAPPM
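Further: rank-based score ranging −0.5 to +0.5 with E above 0.45 taken as significant binding.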

| Sequence | binding signal [E-score] |
| --- | --- |
| ACTCGACG | -0.124 |
| ATCTGCTA | 0.331 |
| CACAGGCC | -0.219 |
| AAATCGCC | 0.322 |
| AATACACT | -0.0515 |
| AACGCCTG | -0.133 |
| AGCATACT | -0.212 |
| ATCAGCAG | 0.141 |
| AACGGAGC | -0.216 |
| ACAAATTG | 0.0984 |
| AGAAGCAC | -0.118 |
| AACAAACA | 0.137 |
| AGTCGGCA | -0.0018 |
| CAAAGTTG | 0.0247 |
| AAGTGATT | 0.282 |
| CACGTGAC | -0.203 |
| AAGTGCGT | -0.0719 |
| ACCCCTAG | -0.231 |
| CAGAACCA | -0.119 |
| ATTATTAG | 0.16 |
| AATGCATC | -0.072 |
| ATTAACAA | 0.138 |
| AAAGAAGG | -0.171 |
| ATCAATTA | 0.187 |
| ACAGCTAA | -0.137 |

| Sequence | binding signal [E-score] |
| --- | --- |
| ACGCAGAG | -0.031 |
| AGGGATCA | 0.127 |
| AGTGCTTG | -0.155 |
| AATATTTG | 0.253 |
| ATGACCAT | -0.157 |
| AAAGCTCG | -0.129 |
| AGTAAAAG | 0.163 |
| AGACACAG | -0.116 |
| ACAAGAGT | -0.0409 |
| CAAGGTAC | -0.0903 |
| ATGAAGGG | -0.156 |
| CAGACAAG | -0.0341 |
| AACCGAAA | 0.0561 |
| AAACTCTC | -0.0615 |
| ATCGTTCG | 0.0477 |
| ACATAACC | -0.0901 |
| AAGCGATT | 0.273 |
| AACCCCAG | -0.287 |
| CAGCCATA | 0.0217 |
| AACGAGAT | 0.309 |
| ACCCGAAG | -0.225 |
| ATGGCACG | -0.111 |
| ACATGTCC | -0.0591 |
| CAGATACC | 0.318 |
| ACGAAAGG | -0.128 |

| Sequence | binding signal [E-score] |
| --- | --- |
| ATCATTAC | 0.167 |
| ACGGGGGC | -0.258 |
| AACTGACG | -0.0411 |
| AGCGATAT | 0.343 |
| AATATTCG | 0.258 |
| AAAACGAG | -0.057 |
| ACGGAAAT | 0.345 |
| AAATTCAA | 0.138 |
| AAGCTCAA | -0.0483 |
| AGGCAACA | -0.0722 |
| CAGCGGGA | -0.052 |
| ATTAACAG | 0.15 |
| CACGGACG | -0.0215 |
| AGCGGCCT | -0.312 |
| ACATGCCC | -0.1 |
| ACCAGCCG | -0.0411 |
| ATTCACTG | -0.0527 |
| AATCCGTG | 0.322 |
| ACAAATCT | 0.374 |
| ACTACCAA | -0.0229 |
| AATAGATG | 0.112 |
| AAACAGGC | -0.127 |
| AGTTTTGG | -0.112 |
| CACTGGGA | -0.134 |
| AAAAATTA | 0.196 |

| Sequence | binding signal [E-score] |
| --- | --- |
| AAAGGTCG | -0.0256 |
| AAAGGTGT | -0.0637 |
| AACACTCA | -0.178 |
| AGGCGATA | 0.0663 |
| AGCACACC | -0.288 |
| AGTTCATA | -0.0426 |
| AAGACTAC | -0.0595 |
| ACCTTGGG | -0.131 |
| AGACGTAG | -0.185 |
| ATCATAAT | 0.158 |
| ATTCCGCA | 0.238 |
| ATCATCGA | 0.189 |
| AGACGGAC | -0.295 |
| AAGTGTCC | -0.117 |
| AAGGCCTA | -0.215 |
| ATAAGCAC | -0.07 |
| ACTACACA | -0.076 |
| AAGACAAA | 0.0299 |
| AGAAGACA | -0.0586 |
| ACATAATC | 0.327 |
| ATCTTGCA | 0.299 |
| AACGGCCT | -0.23 |
| AGGATCAG | 0.149 |
| AAATTGAA | 0.146 |
| AGAAGTTC | -0.0915 |

| Sequence | binding signal [E-score] |
| --- | --- |
| CAAGCAAG | -0.0466 |
| ATTCGATG | 0.108 |
| ATACTAGG | 0.0655 |
| ACGTGCGG | -0.0422 |
| AATCACCG | 0.281 |
| AGCATTAA | -0.0283 |
| AACATCAG | 0.0932 |
| ATTTAAAT | 0.185 |
| AGCCTACG | -0.241 |
| AAACAAAA | 0.161 |
| ACGGTCTC | -0.272 |
| ATCATATG | 0.0481 |
| AACCGTGA | -0.036 |
| CAATTACA | 0.129 |
| AGCCAGGG | -0.251 |
| AGATAGAT | 0.267 |
| ACGACAGG | -0.0951 |
| AGCTCCAT | -0.2 |
| ACGTGAAG | -0.148 |
| ACGCGGGA | -0.0525 |
| AGTGATAG | 0.0301 |
| ATAAGGCC | -0.082 |
| AGTGTTCA | -0.0479 |
| AACACGGT | -0.227 |
| ATATTCAT | 0.0735 |

| Sequence | binding signal [E-score] |
| --- | --- |
| CACGTCGC | -0.158 |
| AGGGTGGC | -0.211 |
| AATCGACC | 0.2 |
| AAACGAGC | -0.119 |
| ACCGGGAC | -0.269 |
| AGACCGAA | -0.0913 |
| AACTGACT | -0.174 |
| AGTGAGCG | -0.14 |
| ATGATACA | 0.076 |
| AGTTCGTA | 0.0646 |
| ACAGGCCA | -0.227 |
| ATGTTCTA | 0.0337 |
| AGAATTAA | 0.00444 |
| AAAAGCGT | -0.0089 |
| ACTGGACA | -0.0739 |
| AGTACAAT | 0.164 |
| AACGTAAT | 0.361 |
| ATATACAG | 0.262 |
| ATGGGGTA | 0.0777 |
| AAAGACCT | -0.0935 |
| AAGAATCA | 0.325 |
| AATGAATA | 0.0644 |
| AACATGGC | -0.0896 |
| AGCTGCGC | -0.227 |
| CAAGATCA | 0.186 |

| Sequence | binding signal [E-score] |
| --- | --- |
| ACCCGTCA | -0.294 |
| ACTCAGCC | -0.264 |
| AGGGTGCA | -0.177 |
| AACGATAT | 0.29 |
| CAACACAG | -0.0803 |
| AGCCGATG | -0.134 |
| AGGTTAGG | -0.186 |
| ACTACCTG | -0.151 |
| ACGTTTTC | -0.00724 |
| AGGGTATA | -0.0406 |
| AACCATGC | -0.103 |
| AACATATA | 0.113 |
| AACTAACG | 0.134 |
| ACCAGAGC | -0.0916 |
| AATTCGAG | 0.0534 |
| ATCGCTCA | 0.0471 |
| ACCTAGAA | 0.0466 |
| ACCATGGT | -0.237 |
| AACCTCTT | -0.0885 |
| AGATCAGA | 0.248 |
| ATCGGTCC | -0.142 |
| ACGTAATC | 0.476 |
| AAAGTTGC | -0.104 |
| AACTTTAG | -0.084 |
| CAATTCAC | -0.00949 |

| Sequence | binding signal [E-score] |
| --- | --- |
| AGATGTAC | -0.0183 |
| AGGGTTGA | -0.0692 |
| ACCGTTCC | -0.0437 |
| AGAAGTAG | -0.118 |
| ATATCTTC | 0.412 |
| AGCCCCAT | -0.219 |
| AATCCCCT | 0.262 |
| AGGAAGAG | -0.199 |
| AGTCAACC | -0.186 |
| CAGAGATA | 0.161 |
| ATCGGCAC | 0.0121 |
| ACTCACGC | -0.116 |
| AACCACCT | -0.344 |
| ACATCTCC | -0.00227 |
| ATACTACC | 0.00264 |
| ACAGTGGC | -0.0484 |
| AGAGGCTC | -0.199 |
| ACCCGCAC | -0.158 |
| ATCGTTGC | 0.126 |
| ATGCTATA | 0.113 |
| AAGACGGT | -0.125 |
| ATGAGAAC | -0.00755 |
| AATAGATA | 0.245 |
| ATCCTAAA | 0.253 |
| CACTACCA | -0.0981 |

| Sequence | binding signal [E-score] |
| --- | --- |
| AATGTTGC | 0.041 |
| AAGGTGGG | -0.221 |
| ACATTTTG | -0.117 |
| AACTACGA | -0.089 |
| AAGGAGCA | -0.248 |
| ATGTCGGC | -0.117 |
| ATAACATG | -0.0919 |
| ATGTCCAA | 0.00699 |
| AAAGAACG | -0.0491 |
| ATCGCAGA | 0.23 |
| ACAAGGAG | -0.201 |
| ACGTGGAG | -0.183 |
| AAGAGCTA | 0.0239 |
| AGTAATCC | 0.369 |
| AGTGGAAA | 0.0483 |
| ACAACTCG | -0.0289 |
| AGAGGACC | -0.308 |
| ACGAGATC | 0.41 |
| AAACCCTA | -0.00643 |
